Assay results taken from PubChem BioAssay AID488969 (Vanderbilt High Throughput Screening Facility, 2010).
In all, about 110,000 compounds were measured (“z-score”: median about -0.1, highest 2% from about 2 on). Some of the results follow. The source made the active and inactive calls.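 Rule for the calls: active = z-score in the third read window above 3 or below -3; inactive = the rest.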

Target: Metabotropic glutamate receptor 8 (Rattus norvegicus) (UniProt P70579)
Test: rat mGluR8 modulators via GIRK flux, primary screen, cell-based, thallium flux, HTS (AID 488969)
Conditions: HEK293 rat mGluR8, GIRK (G protein-gated inwardly rectifying potassium channel) thallium flux, FluoZin2; at 10 µM; stronger effect = higher value; submaximal glutamate (EC20) added with thallium

Sequence of UniProt P70579 (P70579 whole entry, looked up): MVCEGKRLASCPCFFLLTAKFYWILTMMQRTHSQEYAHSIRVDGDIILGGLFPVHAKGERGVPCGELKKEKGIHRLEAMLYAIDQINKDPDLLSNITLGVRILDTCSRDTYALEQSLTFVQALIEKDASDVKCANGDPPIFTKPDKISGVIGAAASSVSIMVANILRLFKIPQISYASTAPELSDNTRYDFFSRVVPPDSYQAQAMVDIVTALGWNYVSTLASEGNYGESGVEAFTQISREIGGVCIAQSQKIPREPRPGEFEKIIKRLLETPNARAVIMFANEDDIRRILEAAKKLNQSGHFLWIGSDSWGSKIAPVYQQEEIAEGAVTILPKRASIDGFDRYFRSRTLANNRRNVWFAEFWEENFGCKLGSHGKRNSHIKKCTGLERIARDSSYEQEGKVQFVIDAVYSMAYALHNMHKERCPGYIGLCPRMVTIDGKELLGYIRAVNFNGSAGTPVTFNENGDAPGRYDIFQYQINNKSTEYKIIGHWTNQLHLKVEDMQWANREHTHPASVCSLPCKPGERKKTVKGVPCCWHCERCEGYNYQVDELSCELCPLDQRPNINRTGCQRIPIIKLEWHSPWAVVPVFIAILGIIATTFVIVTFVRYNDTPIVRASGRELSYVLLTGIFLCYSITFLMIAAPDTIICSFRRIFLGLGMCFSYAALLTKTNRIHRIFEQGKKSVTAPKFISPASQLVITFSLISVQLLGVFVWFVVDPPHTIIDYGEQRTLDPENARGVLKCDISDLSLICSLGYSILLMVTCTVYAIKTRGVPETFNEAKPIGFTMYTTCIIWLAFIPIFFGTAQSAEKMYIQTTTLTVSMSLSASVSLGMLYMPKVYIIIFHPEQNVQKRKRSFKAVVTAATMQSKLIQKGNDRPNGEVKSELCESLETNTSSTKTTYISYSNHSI

| SMILES | z-score |
| --- | --- |
| CCCCP(=O)(c1ccccn1)c1ccccn1 | 0.00517 |
| COc1ccc(/C=N/NC(=O)CN(CCc2ccccc2)S(=O)(=O)c2ccc(NC(C)=O)cc2)cc1OC | -0.231 |
| CSc1cccc(NS(=O)(=O)c2ccccc2)c1 | -0.281 |
| O=C(CSCc1ccc(Cl)cc1)N/N=C/c1ccc(Cl)cc1Cl | 0.271 |
| Cc1nn(C)cc1CN(C)C(=O)c1cc2nc(-c3ccco3)cc(C(F)(F)F)n2n1 | -0.899 |
| COc1ccc(OC)c(-c2oc3ccccc3c(=O)c2O)c1 | 0.149 |
| C/C=C/c1ccc(OCCCCOc2ccc(OC)cc2)c(OC)c1 | 0.557 |
| C/C(N)=C(/C#N)C(=O)COC(=O)CCSc1ccccc1Cl | -0.346 |
| O=C(CSC(=S)N1CCCCC1)N1N=CCC1c1ccccc1 (stereo unspecified) | -0.371 |
| CCOC(=O)NC1(NC(C)C)Oc2ccccc2O1 | 0.00812 |
| COc1cccc(CNC(=O)CCl)c1 | 0.214 |
| CS(=O)(=O)N(Cc1ccccc1)c1ccc(C(=O)NCCSc2ccccn2)cc1 | 0.438 |
| COc1ccc(Oc2cn[nH]c2-c2ccc(O)cc2O)cc1 | 0.323 |
| Cc1ccc(NS(=O)(=O)c2ccc(C)c(NC(=O)COc3ccccc3)c2)c(C)c1 | -0.26 |
| CNC(=O)NC(=O)CSc1nnc(-c2ccco2)n1Cc1ccccc1 | 0.114 |
| NC(=O)CSc1nnc(-c2cccs2)n1-c1ccccc1 | 0.733 |
| CCCn1nnnc1SCC(=O)N1CCN(C(=O)c2ccco2)CC1 | -0.11 |
| O=C1C(CCCNC(=S)NCc2ccccc2)NC(=S)N1Cc1ccccc1 (stereo unspecified) | 0.254 |
| Cc1ccccc1-n1nc(CSc2nc3ccccc3[nH]2)c(-c2ccccc2)c1N | -0.755 |

| SMILES | z-score |
| --- | --- |
| COc1ccc(C)cc1-n1nnnc1SCC1CCCO1 (stereo unspecified) | -0.281 |
| CCOC(=O)c1cc2sccc2n1CC(=O)OC | -0.185 |
| CCn1nnnc1SCC(=O)NCc1ccc2c(c1)OCO2 | -0.212 |
| COC(=O)C1=C(C)NC(=O)/C1=C\c1cc(C)n(-c2c(C)cccc2C)c1C | 1 |
| COc1ccc2c(=O)c3c(=O)n(Cc4ccco4)c(-c4ccc(C)cc4)nc3oc2c1 | -2.04 |
| COc1ccc(S(=O)(=O)/N=C2/NC(=O)/C(=C\c3cc(OC)c(OC)cc3[N+](=O)[O-])S2)cc1 | -0.711 |
| C=C(C)C1CC=C(C)/C(=N/NC(=O)CNc2ccc(OCC)cc2)C1 (stereo unspecified) | 1.99 |
| Cc1nn(Cc2nc(-c3cccs3)no2)c(C)c1Br | -0.107 |
| CCN(CC)C(=O)C1CCCN(c2ccc([N+](=O)[O-])cc2/C=N/NC(=O)c2cccc(Br)c2)C1 (stereo unspecified) | -0.344 |
| Cc1ccc(S(=O)(=O)c2ccc(Cl)cc2)cc1S(=O)(=O)NC(C(=O)O)C(C)C (stereo unspecified) | -0.055 |
| Cc1cc(Cl)ccc1Oc1ncc(CN2CCN(c3ccccc3)CC2)s1 | 0.272 |
| Cc1ccc(-c2cc(C(=O)N/N=C/C=C/c3ccccc3)n[nH]2)s1 | -0.0221 |
| Cc1cc(S(=O)(=O)N(Cc2ccc(C(C)(C)C)cc2)Cc2cccs2)ccc1-n1cnnn1 | 0.292 |
| Cc1ccc(S(=O)(=O)N(C(=O)c2ccncc2)c2ccc(OC(=O)c3ccncc3)cc2)cc1 | -0.112 |
| CCOC(=O)CSc1nc2sc3c(c2c(=O)n1CC)CC(C)(C)OC3 | -0.119 |
| CCCOc1ccc(-c2nnc(-c3ccco3)o2)cc1 | -0.0301 |
| Cc1cc(C)n(C(=O)c2ccc(NC(=O)C3COc4ccccc4O3)cc2)n1 (stereo unspecified) | -0.154 |
| COc1ccc(-c2ccnc3nc(-n4cccc4)nn23)cc1 | -1.1 |
| C=CCN(CC=C)S(=O)(=O)c1ccc(NC(=S)NC(=O)c2ccco2)cc1 | active: 10.3 |

| SMILES | z-score |
| --- | --- |
| Cc1ccc(S(=O)(=O)N(CC(=O)NCc2ccco2)C2CCCCC2)cc1 | -0.303 |
| CC(C)CN1CCC(C(=O)NCC2CCCO2)CC1 (stereo unspecified) | -0.311 |
| CC1=C(C(=O)N2CCOCC2)C(c2ccc(Cl)cc2)NC(=S)N1 (stereo unspecified) | -0.178 |
| Cc1ccc(S(=O)(=O)N2CCN(S(=O)(=O)c3ccc(C)cc3)C2)cc1 | -0.481 |
| CC1CCCCC1N1CN=C(Nc2nc3ccccc3s2)NC1 (stereo unspecified) | -0.335 |
| Cc1ccc(C)c(NC(=O)c2cccc(Oc3ccc([N+](=O)[O-])cc3Cl)c2)c1 | -0.372 |
| CCOC(=O)c1sc(-c2ccc(C)cc2)c(C#N)c1C | -0.244 |
| Cn1c(/C(C#N)=C/Nc2ccccn2)nc2ccccc21 | 0.0645 |
| CC1CCCCC12NC(=O)N(Cn1nnc3ccccc3c1=O)C2=O (stereo unspecified) | 0.195 |
| Cc1ccc(S(=O)(=O)N2CCCOC2CNC(=O)C(=O)NCCC2=CCCCC2)cc1 (stereo unspecified) | -0.455 |
| CCOC(=O)Nc1cc(C)c(Cl)cc1OC | -0.221 |
| COc1ccc(Nc2nc(-c3cccc([N+](=O)[O-])c3)nc3ccccc23)c(OC)c1 | 0.00986 |
| Cc1cccc(OCC(=O)Nc2nc3ccc([N+](=O)[O-])cc3s2)c1C | -0.12 |
| O=C(Nc1ccc2ccccc2c1)c1cccnc1 | -0.194 |
| COc1ccc(OC)c(NC(=S)N2CCN(c3ccccn3)CC2)c1 | -0.116 |
| CCC(CC)NC(=O)COC(=O)c1ccc(OCC(=O)Nc2ccccc2OC)c(OC)c1 | -0.0802 |
| N#CCCn1nc(-c2ccccc2)cc1-n1c(C(F)(F)F)nc2ccccc21 | -0.505 |
| CCOC(=O)CNC(=O)Cn1cnc2ccc(S(=O)(=O)N3CCC(C)CC3)cc2c1=O | 0.396 |
